Data as given in PMC2970546.
No constants are given. Whether binding was seen depends on the method and setting. Some binding calls cover weakened binding; strength is not graded here.

Sequences of proteins named here, by UniProt entry; tags and fusion partners are left off. A change or cut given only in a name is not applied to a line headed by its entry. A line that says so, or that is headed by a name, gives the form on record, which may keep a tag or linker.
human septin 3 (Q9UH03-2, form named): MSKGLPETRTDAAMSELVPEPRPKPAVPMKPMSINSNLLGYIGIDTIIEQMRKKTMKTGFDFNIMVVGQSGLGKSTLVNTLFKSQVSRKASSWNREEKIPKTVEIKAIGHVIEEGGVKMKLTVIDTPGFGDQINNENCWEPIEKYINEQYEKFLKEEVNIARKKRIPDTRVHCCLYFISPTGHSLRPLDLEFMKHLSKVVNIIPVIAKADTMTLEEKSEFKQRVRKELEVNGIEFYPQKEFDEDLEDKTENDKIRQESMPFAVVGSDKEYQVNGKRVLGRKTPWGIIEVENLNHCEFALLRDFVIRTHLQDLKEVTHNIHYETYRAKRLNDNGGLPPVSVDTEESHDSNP

Columns and labels:
Assay in all cases: two-hybrid; LexA-septin bait (modified pBTM116) in yeast L40 screened against human fetal brain and human leukocyte cDNA libraries (pACT2); minimal medium without Trp, Leu, His, with 5 mM 3-AT; every clone confirmed one-to-one with its bait by beta-galactosidase filter assay, empty bait vector as control
[1] = target: T1, human septin 6 (human) (UniProt Q14141)
T1 sequence: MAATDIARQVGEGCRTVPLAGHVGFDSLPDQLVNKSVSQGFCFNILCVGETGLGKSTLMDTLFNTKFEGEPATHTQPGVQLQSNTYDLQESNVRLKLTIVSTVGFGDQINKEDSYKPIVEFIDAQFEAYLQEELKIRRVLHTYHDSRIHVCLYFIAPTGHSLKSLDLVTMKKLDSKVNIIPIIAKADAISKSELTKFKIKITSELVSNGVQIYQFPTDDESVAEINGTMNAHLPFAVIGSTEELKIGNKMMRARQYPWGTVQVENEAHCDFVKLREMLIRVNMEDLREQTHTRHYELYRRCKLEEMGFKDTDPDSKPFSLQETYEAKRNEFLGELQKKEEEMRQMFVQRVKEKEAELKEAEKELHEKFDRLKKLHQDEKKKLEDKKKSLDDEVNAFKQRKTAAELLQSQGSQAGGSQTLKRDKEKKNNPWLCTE

[2] = target: T2, human septin 9, transcript variant 3, protein isoform c, full length (human) (UniProt Q9UHD8)
T2 sequence: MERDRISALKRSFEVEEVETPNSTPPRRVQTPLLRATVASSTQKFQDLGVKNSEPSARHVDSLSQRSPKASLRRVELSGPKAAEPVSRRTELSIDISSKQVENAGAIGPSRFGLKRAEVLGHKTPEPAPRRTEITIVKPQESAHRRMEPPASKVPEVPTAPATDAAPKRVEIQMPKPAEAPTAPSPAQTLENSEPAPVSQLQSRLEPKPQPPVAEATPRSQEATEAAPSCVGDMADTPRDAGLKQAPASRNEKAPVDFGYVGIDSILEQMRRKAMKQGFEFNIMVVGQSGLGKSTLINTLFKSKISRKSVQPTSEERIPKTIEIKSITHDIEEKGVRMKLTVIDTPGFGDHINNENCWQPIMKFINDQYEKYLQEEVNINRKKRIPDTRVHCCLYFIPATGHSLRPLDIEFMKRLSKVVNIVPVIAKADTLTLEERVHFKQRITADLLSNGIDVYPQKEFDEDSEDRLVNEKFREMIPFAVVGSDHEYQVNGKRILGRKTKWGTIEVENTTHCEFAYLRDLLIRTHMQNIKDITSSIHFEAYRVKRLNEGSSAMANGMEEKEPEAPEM

[3] = target: human septin 3 (human) (UniProt Q9UH03)
[4] = target: T3, human septin 10 (human) (UniProt Q9P0V9)
T3 sequence: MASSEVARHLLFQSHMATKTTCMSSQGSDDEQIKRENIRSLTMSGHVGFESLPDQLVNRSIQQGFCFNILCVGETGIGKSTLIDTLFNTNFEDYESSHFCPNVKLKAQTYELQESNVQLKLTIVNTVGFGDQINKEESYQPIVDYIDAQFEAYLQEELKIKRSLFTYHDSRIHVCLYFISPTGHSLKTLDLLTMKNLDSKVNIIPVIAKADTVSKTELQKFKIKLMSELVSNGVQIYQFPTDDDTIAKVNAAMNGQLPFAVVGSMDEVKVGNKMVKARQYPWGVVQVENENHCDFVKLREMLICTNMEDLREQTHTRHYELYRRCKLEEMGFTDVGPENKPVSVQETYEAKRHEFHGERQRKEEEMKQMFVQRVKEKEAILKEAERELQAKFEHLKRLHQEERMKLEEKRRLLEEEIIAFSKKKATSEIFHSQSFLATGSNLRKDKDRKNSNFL

**Q.** How did the binding [1] turn out when “human septin 3 (from UniProt Q9UH03-2 1-350)” was run?
**A.** binds

**Q.** And the binding [2]?
**A.** no binding

**Q.** What about the binding [3] of the same substance?
**A.** no binding

**Q.** And the binding [4]?
**A.** no binding
